Measured values: patent US5155209A, “R-(+) enantiomeric form of 7-(2, 3-epoxypropoxy) actinomycin D” (priority 1991, dated 1992)

Columns and labels:
Calf Thymus DNA = experiment: Thermal denaturation (ΔTm) of DNA-drug complex; type: binding; details: 0.01 phosphate buffer pH 7.0, 5% Me2SO
Experimental: ^a ΔTm = Tm of DNAdrug complex minus Tm of
drugfree DNA; concentration of drug 14.0 nM and that of DNA 70 nM in 0.01
phosphate buffer, pH 7.0, 5 × 10^3 EDTA and 5% Me2 SO.
Broad Tm of analogues indicate some covalent binding, in contrast to
relatively sharp Tm of actinomycin that is indicative of
intercalative binding to DNA.
DNA-binding experiments were carried out in 0.01M phosphate buffer (pH7), containing EDTA (10^-5 M). For unwinding studies with covalently closed circular DNA, SV 40 DNA (0.234 ug, BRL, Bethesda, MD) was dissolved in 10 mM Trizma base (pH 7.4) buffer containing 50 mM KCl, 50 mM MgCl2, and 0.1 mM EDTA and incubated with appropriate volumes of drug solution for 60 min at 37° C. After the addition of loading buffer (25% bromophenol blue, 25% xylene cyanol in 30% glycerol), each sample was added to a 1% agarose gel. The gels were run at 35 V overnight using a Tris-borate EDTA buffer (pH 8). The DNA was visualized by staining the gel with ethidium bromide (0.5 ug/mL).

purified calf thymus DNA = experiment: Covalent and noncovalent (intercalative) binding to calf thymus DNA, [DNA base]/[drug] ratios; details: 20 mM Tris-HCl pH 7.4, 37° C.
Experimental: ^b Binding to purified calf thymus DNA in 20 mM TrisHCl, ph 7.4 buffe
at 37° C.; A values are molar ratios of DNA to drug based on the
total amount of drug that is bound both intercalatively and covalently to
^c B values are similar ratios assayed on the basis of drugs bound
entirely by covalent bonding to DNA base.

P388/ADR [1] = experiment: Antitumor activity against ip implanted P388/ADR in CDF1 mice; type: in vivo; details: days 1-9
Experimental: ^e Optimal dose of drugs.
^ f Median survival time of tumor bearing mice.
^g Percent increase in median life time in days of drugtreated dying
animals vs those of controls; (survivors), number of 60 days
survivors/number of animals tested in the group.
In order to examine a broader spectrum of activity, these optical isomers are tested in two other mouse leukemia cell lines in vivo. One cell line, P388/ADR, is a derivative of the above P388/S made resistant to intercalating agents like […].

[2] = test system: DNA synthesis in L1210 cells; experiment: Inhibition of DNA synthesis in L1210 ([methyl-14C]thymidine incorporation); type: cell-based, Murine; details: for IC50 DNA relative to IC50 RNA (preference for inhibition of RNA to DNA synthesis): L1210 cells; for IC50: [methyl-14C]thymidine incorporation into DNA, read-out: inhibition of synthesis of nucleic acids in L1210 IC50 DNA
Experimental: (§1) ^a Drug concentration (micromolor) for 50% reduction of incorporation
(§2) of [methyl^14 C]thymidine into DNA^b and [5^3 H] uridine into
(§3) RNA^c from the rate of incorporation of the same radionucleotides in
(§4) nondrug treated L1210 cells growing actively in vitro.
(§5) Inhibition of nucleic acid synthesis in L1210 lymphoid leukemia cells by (±)-EPA and it optical isomers are assayed. […] In contrast, the racemic (±)-EPA, (R)- (+)-EPA, and (S)-(-)-EPA show about 3 to 1, 2 to 1 and 1 to 1 preference, respectively, for the inhibition of RNA to DNA synthesis. Because of the closeness of the IC50 DNA and IC50 RNA values for these isomers of EPA (Table V), a modification of the process was introduced in order to account for even a marginal cross-incorporation from the [2-^14 C] uridine into DNA. To achieve this, a digestion of the nucleic acid pellet with DNase-free RNase enzyme, prior to final pelleting of the DNA precipitate is made to ensure that no more than ±8% contamination from […] into DNA takes place, and for this the necessary correction is made in the data reported in Table V.

[3] = test system: P388/S lymphocytic leukemia; experiment: P388/S lymphocytic leukemia in CDF1 mice; type: in vivo; details: optimal dose level
Experimental: P388/S is highly responsive to the action of AMD. In order to examine a broader spectrum of activity, these optical isomers are tested in two other mouse leukemia cell lines in vivo. One cell line, P388/ADR, is a derivative of the above P388/S made resistant to intercalating agents like […]. […] This remarkable improvement of activity in all the optically active or racemic forms of this analogue is matched by another alkylating agent, mitomycin C, which is known to act in cells via alkylation of DNA. Presumably, the high activities of these agents are derived primarily from their DNA-alkylatingproperty (Table III).

[4] = test system: RNA synthesis in L1210 cells; experiment: Inhibition of RNA synthesis in L1210 ([5-3H]uridine incorporation); type: cell-based, Murine; details: [5-3H]uridine incorporation into RNA; read-out: inhibition of synthesis of nucleic acids in L1210 IC50 RNA
Experimental: as §1, §2, §3, §4, §5

L1210 cells = experiment: Inhibition of growth of L1210 cells in culture; type: cell-based, Murine; details: in vitro growth inhibition
Experimental: (§6) The analogues are assayed for in vitro growth inhibitory activity against several experimental tumor lines including human and murine leukemia, mouse melanoma, and human lymphoblastic leukemia.

P388/ADR [5] = experiment: Inhibition of growth in vitro of P388/ADR cells; type: cell-based, mouse
Experimental: as §6

Row | SMILES | Tm (ΔTm = Tm of DNA-drug complex minus Tm of drug-free DNA) (Calf Thymus DNA) | [DNA base]/[drug] A: molar ratio of DNA to drug, total drug bound intercalatively and covalently (purified calf thymus DNA) | [DNA base]/[drug] B: molar ratio, drug bound entirely by covalent bonding to DNA base (purified calf thymus DNA) | fold increase of % ILS over actinomycin (P388/ADR [1]) [fold] | IC50 DNA relative to IC50 RNA (preference for inhibition of RNA to DNA synthesis) [2] | % ILS relative to that effected by AMD [3] [times] | IC50 [4] [nM] | potency relative to AMD in the L1210 line (L1210 cells) | potency relative to AMD in the P388/ADR line (P388/ADR [5]) | IC50 [2] [nM]
1 | Cc1c2oc3c(C)c(OCC4CO4)cc(C(=O)NC4C(=O)NC(C(C)C)C(=O)N5CCCC5C(=O)N(C)CC(=O)N(C)C(C(C)C)C(=O)OC4C)c3nc-2c(C(=O)NC2C(=O)NC(C(C)C)C(=O)N3CCCC3C(=O)N(C)CC(=O)N(C)C(C(C)C)C(=O)OC2C)c(N)c1=O (racemic) [3b[(±)-EPA]] [7-(2,3-epoxypropoxy) actinomycin D] | 5.2 ± 0.95 | 32 ± 1 | 480 ± 10 | 10 | 3 to 1 | 2.5 | – | – | – | –
2 | Cc1c2oc3c(C)c(OCC4CO4)cc(C(=O)NC4C(=O)NC(C(C)C)C(=O)N5CCCC5C(=O)N(C)CC(=O)N(C)C(C(C)C)C(=O)OC4C)c3nc-2c(C(=O)NC2C(=O)NC(C(C)C)C(=O)N3CCCC3C(=O)N(C)CC(=O)N(C)C(C(C)C)C(=O)OC2C)c(N)c1=O [(R)-(+)-EPA, 7-(2,3-epoxypropoxy) actinomycin D] | 4.8 ± 1.15 | 30 ± 2 | 500 ± 15 | – | 2 to 1 | – | 31 ± 5 | about 3 times | more than 6 fold | 60 ± 15
3 | Cc1c2oc3c(C)c(OCC4CO4)cc(C(=O)NC4C(=O)NC(C(C)C)C(=O)N5CCCC5C(=O)N(C)CC(=O)N(C)C(C(C)C)C(=O)OC4C)c3nc-2c(C(=O)NC2C(=O)NC(C(C)C)C(=O)N3CCCC3C(=O)N(C)CC(=O)N(C)C(C(C)C)C(=O)OC2C)c(N)c1=O [(S)-(-)-EPA, 7-(2,3-epoxypropoxy) actinomycin D] | 5.0± 1.10 | 32 ± 2 | 520 ± 15 | – | – | – | 50 ± 5 | – | – | 60 ± 10
